Data from patent US20200131257A1 (YALE UNIVERSITY, published 2020).

Target: T1, R203W/L194F-mutated FGF21 (FGF21WF) (human, UniProt Q9NSA1 29-209)
T1 construct: also called FGF21 carrying a double L194F/R203W mutations
T1 chain: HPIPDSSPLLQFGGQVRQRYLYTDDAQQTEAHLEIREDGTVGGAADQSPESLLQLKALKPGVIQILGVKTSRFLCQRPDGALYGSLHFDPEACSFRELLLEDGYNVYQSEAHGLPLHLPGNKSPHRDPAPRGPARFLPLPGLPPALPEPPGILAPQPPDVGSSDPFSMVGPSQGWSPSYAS
Test: MST: sKLB titrated into fluorescently labelled FGF21 R203W/L194F, plotted as fraction bound
Excerpt: Purified FGF21 was fluorescently labeled using the Monolith Protein Labeling Kit RED-NHS (NanoTemper Technologies) according to the instruction provided by the manufacturer. […] The thermophoretic movements of fl-FGF21 in each samples were monitored (LED 20%, IR laser 20%,) and the normalized fluorescence intensities (FNorm), defined as Fₕₒₜ/Fcold (where Fcold and Fₕₒₜ refer to the fluorescence intensities averaged over […] before IR laser is on and 29 s after IR laser is on, respectively), for each samples were plotted against the concentrations of sKLB. For the competition assays, the thermophoresis of fl-FGF21 was measured for samples where the concentration of fl-FGF21 and sKLB mixture was kept constant with the concentrations of GST-FGF21CT varying from 2.1 nM to 35000 nM. All the data were analyzed with the MO Affinity Analysis software (NanoTemper Technologies) provided by the manufacturer.
As endocrine FGFs play important roles in the control of metabolic processes, a variety of approaches have been utilized to develop novel therapeutics that retain (and exceed in potency) the beneficial stimulatory responses of FGF19 and or FGF21 while minimizing the side effects caused by these two hormones. […] In certain non-limiting embodiments, potency of FGF21 can be enhanced by introducing mutations into its C-terminal tail that strengthen interactions with β-Klotho. […]

B1: extracellular domain of human β-Klotho (sKLB) (receptor)
chain: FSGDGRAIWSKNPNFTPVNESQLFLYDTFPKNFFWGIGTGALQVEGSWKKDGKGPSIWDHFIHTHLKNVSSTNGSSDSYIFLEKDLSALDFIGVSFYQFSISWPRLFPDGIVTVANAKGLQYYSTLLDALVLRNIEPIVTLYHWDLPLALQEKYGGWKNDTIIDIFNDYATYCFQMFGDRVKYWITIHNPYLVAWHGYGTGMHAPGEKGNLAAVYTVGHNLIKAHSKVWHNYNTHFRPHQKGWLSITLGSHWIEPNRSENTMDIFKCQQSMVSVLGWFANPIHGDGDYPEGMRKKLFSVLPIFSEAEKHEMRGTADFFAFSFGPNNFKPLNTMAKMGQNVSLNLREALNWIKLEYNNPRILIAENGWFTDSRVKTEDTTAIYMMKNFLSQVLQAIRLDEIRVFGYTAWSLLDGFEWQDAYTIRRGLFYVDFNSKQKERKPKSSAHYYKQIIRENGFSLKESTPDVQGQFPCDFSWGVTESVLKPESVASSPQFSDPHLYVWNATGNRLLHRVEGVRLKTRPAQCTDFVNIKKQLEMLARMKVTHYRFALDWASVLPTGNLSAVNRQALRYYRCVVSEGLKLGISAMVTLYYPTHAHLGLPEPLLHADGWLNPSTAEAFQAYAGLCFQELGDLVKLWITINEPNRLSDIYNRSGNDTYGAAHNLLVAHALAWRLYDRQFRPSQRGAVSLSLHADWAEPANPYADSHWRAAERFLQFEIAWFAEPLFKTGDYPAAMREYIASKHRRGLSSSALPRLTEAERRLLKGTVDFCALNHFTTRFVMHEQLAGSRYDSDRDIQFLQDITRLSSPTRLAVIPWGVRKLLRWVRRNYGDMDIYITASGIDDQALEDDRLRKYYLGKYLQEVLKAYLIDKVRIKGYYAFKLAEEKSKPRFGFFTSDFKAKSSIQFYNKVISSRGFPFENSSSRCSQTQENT
notes: Made in HEK293-EBNA cells; also called WT sKLB; not shown: remnant of the TEV protease cleavage site / four-Gly linker left after the Fc tag was cut off
EC50 (read off the curve): ~10 nM
